Measurements from PMC4336329 (PLoS ONE, 2015).
The whole screen tested about 310,000 compounds, of which about 14,000 (4.5%) showed an effect of 50% or more. The effect is printed as a negative number. The list shows a part of the results.

Target: human ether-à-go-go-related gene (hERG) potassium channel (human, UniProt Q12809)
Assay: primary screen, population patch clamp on CHO cells stably expressing hERG
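Further: peak tail current of the secondary pulse compared with the same well before compound.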

Sequence of human ether-à-go-go-related gene (hERG) potassium channel (Q12809 whole entry, looked up): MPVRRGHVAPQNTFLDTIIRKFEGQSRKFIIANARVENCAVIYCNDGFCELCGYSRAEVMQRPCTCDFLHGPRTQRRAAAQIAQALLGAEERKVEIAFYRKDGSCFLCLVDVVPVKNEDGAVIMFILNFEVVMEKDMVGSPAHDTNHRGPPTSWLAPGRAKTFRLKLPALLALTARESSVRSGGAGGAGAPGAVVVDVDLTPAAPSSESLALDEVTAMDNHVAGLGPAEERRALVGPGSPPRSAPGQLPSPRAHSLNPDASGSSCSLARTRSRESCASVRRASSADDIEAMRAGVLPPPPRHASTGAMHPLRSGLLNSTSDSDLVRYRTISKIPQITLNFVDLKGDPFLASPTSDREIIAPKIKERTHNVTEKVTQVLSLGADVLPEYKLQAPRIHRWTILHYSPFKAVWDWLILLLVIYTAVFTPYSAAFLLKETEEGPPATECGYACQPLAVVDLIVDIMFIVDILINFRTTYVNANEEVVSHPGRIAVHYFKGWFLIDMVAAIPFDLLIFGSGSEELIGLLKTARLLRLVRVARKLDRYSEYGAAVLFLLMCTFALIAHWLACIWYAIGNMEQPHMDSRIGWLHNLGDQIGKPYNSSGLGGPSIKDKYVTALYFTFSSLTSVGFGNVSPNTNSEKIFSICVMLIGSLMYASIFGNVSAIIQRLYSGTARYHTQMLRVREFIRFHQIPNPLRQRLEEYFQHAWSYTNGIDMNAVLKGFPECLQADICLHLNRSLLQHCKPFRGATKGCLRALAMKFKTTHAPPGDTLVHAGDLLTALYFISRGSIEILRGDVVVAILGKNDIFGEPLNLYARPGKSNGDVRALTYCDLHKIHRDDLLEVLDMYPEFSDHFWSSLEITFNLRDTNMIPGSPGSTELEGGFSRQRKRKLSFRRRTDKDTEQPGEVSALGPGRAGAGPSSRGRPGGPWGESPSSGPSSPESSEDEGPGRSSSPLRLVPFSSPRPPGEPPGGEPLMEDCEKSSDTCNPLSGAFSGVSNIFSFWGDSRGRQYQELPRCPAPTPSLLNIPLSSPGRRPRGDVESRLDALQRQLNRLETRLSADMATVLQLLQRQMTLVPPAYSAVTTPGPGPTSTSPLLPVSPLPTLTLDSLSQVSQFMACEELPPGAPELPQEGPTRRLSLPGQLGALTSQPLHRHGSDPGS

| SMILES | hERG current change (%, negative = inhibition) at 10uM [%] |
| --- | --- |
| CSc1nnc(C)c(/C=C/Nc2ccc(Cl)cc2)n1 | 8.3 |
| CCN(CCCNC(=O)C1CCN(S(=O)(=O)c2cnc[nH]2)CC1)c1cccc(C)c1 | -1.03 |
| O=C(NCCc1ccccc1)C(=O)NCCC1CCCCN1S(=O)(=O)c1cccs1 (stereo not shown) | -29.5 |
| Cc1cc(C)c(OCC(=O)Nc2ccc(N3CCOCC3)cc2)c(Br)c1 | 9.1 |
| CC(C)c1csc(CN2CCCC(CNC(=O)c3cccc4ccccc34)C2)n1 (stereo not shown) | -8.32 |
| O=C(N/N=C/c1cccnc1)c1cccs1 | 11 |
| CCCCCC(=O)Nc1nc(C)c(-c2csc(Nc3ccccc3OC)n2)s1 | 16.6 |
| CC(C)CCN1C(Nc2ccccc2)=NC[C@@H]1CC(C)C | -33.4 |
| CC(C)(C)OC(=O)N1CCC[C@H]1c1nnc(SCc2ccc(Cl)cc2Cl)o1 | 4.07 |
| C=CCn1c(SCC(=O)Nc2c(C)n(C)n(-c3ccccc3)c2=O)nc2scc(-c3ccccc3)c2c1=O | -56 |
| Cc1cc(Sc2nc(N(C)C)nc(N(C)C)n2)nc(Cl)n1 | -5.97 |
| COc1ccc(C(=O)NC2CCCc3ccccc32)c(OC)c1OC (stereo not shown) | -45.7 |
| COc1ccc(/C=C2/CC/C(=C\c3ccc(OC)c(OC)c3OC)C2=O)c(OC)c1OC | -7.85 |
| CCOc1ccccc1-n1c(SCC(=O)N2CCOCC2)nc2ccccc2c1=O | -3.73 |
| Cc1ccc2nc(-c3ccncc3)cc(C(=O)NCCc3ccc(F)cc3)c2c1 | 10.5 |
| NC(=O)COC(=O)c1ccccc1SCC(=O)NC1CCCCCC1 | 23.9 |
| CCN(C(=O)Oc1ccccc1)c1ccc(C(O)(C(=O)OC)C(F)(F)F)cc1 (stereo not shown) | -2.44 |
| COc1ccc(CN2CCCC(C(=O)N(C)Cc3ccccc3)C2)cc1OC.O=C(O)C(=O)O (stereo not shown) | -71.1 |
| COc1cccc(CC2(CO)CCCN(Cc3ccccc3Cl)C2)c1 (stereo not shown) | -31.2 |
| Cc1ccsc1/C=N/n1c(C2CCCCC2)n[nH]c1=S | 8.95 |
| COc1cccc(C(=O)NNC(=O)C2CCCO2)c1 (stereo not shown) | 15.3 |
| Cc1cc(C)c(NC(=O)Cn2cnc3c(oc4ccccc43)c2=O)c(C)c1 | 25.7 |

| SMILES | hERG current change (%, negative = inhibition) at 10uM [%] |
| --- | --- |
| CCOc1ccc(N2C(=O)CC(Sc3nc(O)c(CC)c(=O)[nH]3)C2=O)cc1 (stereo not shown) | 13.1 |
| NC(N)=Nc1nc2ccc([N+](=O)[O-])cc2[nH]1 | 13 |
| O=C(COC(=O)c1ccc2ccccc2c1)Nc1ncc(C(F)(F)F)cc1Cl | -31.3 |
| Cc1ccc(C(=O)N/C(=C/c2ccco2)C(=O)N2CCCCCC2)cc1 | 26.6 |
| Cc1ccc(CNC(=O)CNS(=O)(=O)c2ccc3nc(C)sc3c2)cc1 | -64.6 |
| Nc1c(N=O)c(=O)[nH]c(=O)n1-c1ccccc1 | 10.2 |
| Cc1ccccc1NC(=O)Oc1cccc(OC(=O)c2ccccc2)c1 | 7.06 |
| Cc1ccccc1NC(=O)CC1c2ccccc2CC(C)(C)N1C (stereo not shown) | 4.03 |
| Cc1ccc(S(=O)(=O)N(C)c2c(C)ccc(S(=O)(=O)NC(C)(C)C)c2C)cc1 | 9.67 |
| CCOC(=O)c1nnn(-c2nonc2N)c1CN1CCc2ccccc2C1 | -10.2 |
| COc1ccc(C2(C(=O)Nc3ccccc3)CCOCC2)cc1 | -14.2 |
| COc1cccc(CN2CCN(Cc3cc4ccccc4o3)CC2CCO)c1 (stereo not shown) | -10.7 |
| CCOC(=O)c1sc(-c2ccccc2)nc1C | 8.42 |
| CN(C)S(=O)(=O)c1ccc(C(=O)Oc2cc(=O)[nH]c3ccccc23)cc1 | 15.4 |
| COc1cc(NC(=S)NCc2cccs2)cc(OC)c1 | -17.9 |
| O=C1NC(=O)/C(=C\c2ccsc2)N1 | 10.6 |
| CCCCc1c(C)nn(-c2nnc3c4ccccc4n(C)c3n2)c1C | -4.7 |
| CC(C)c1ccc(NC2(C#N)C(=O)Nc3ccccc32)cc1 (stereo not shown) | 1.93 |
| CCCn1c(=N)c(S(=O)(=O)c2ccccc2)cc2c(=O)n3ccccc3nc21 | -15.6 |
| Cc1cccc(OCC(=O)Nc2ccc(N3CCN(S(C)(=O)=O)CC3)cc2)c1 | 12 |
| O=C(CSc1nnc2ccccn12)Nc1cccc(-c2nc3ccccc3s2)c1 | 10.6 |
| O=C(COc1ccc(C(=O)c2ccccc2)cc1)NC1CCCCC1 | 0.246 |

| SMILES | hERG current change (%, negative = inhibition) at 10uM [%] |
| --- | --- |
| CCOC(=O)c1c(NC(=O)C(C)Sc2c[nH]c3ccccc23)sc2c1CCC2 (stereo not shown) | 18 |
| CC(C)C1(CCNC(=O)c2cccs2)CCOC(C)(C)C1 (stereo not shown) | 3.64 |
| CCCCn1c(N)c(N(CC)C(=O)CCc2ccccc2)c(=O)[nH]c1=O | 17.9 |
| O=C(/C=C/c1ccc2c(c1)OCO2)c1c(O)n(CCc2ccccc2)c(=O)[nH]c1=O | 1.79 |
| Cc1sc2ccccc2c1CC1=NCCN1.O=C(O)C(=O)O | -24.1 |
| CCN(CC1COc2ccccc2O1)C(=S)Nc1ccccc1 (stereo not shown) | -7.27 |
| Clc1cccc(CSc2nc3ccncc3[nH]2)c1 | -18.4 |
| Cc1cc(S(=O)(=O)n2ccnc2)c(Cl)cc1Cl | 25.1 |
| CC(=O)Nc1ccc(S(=O)(=O)N(C)CC(=O)N(C)Cc2sccc2C)cc1 | -8.15 |
| COc1ccc(CCNc2nc(=O)[nH]nc2C)cc1OC | 2.35 |
| CCOC(=O)c1ccc(Nc2nc(-c3cccnc3)nc3ccccc23)cc1 | -10.8 |
| COC(=O)c1ccc(OCC(=O)N2CCCc3ccccc32)cc1 | 8.02 |
| CNS(=O)(=O)c1ccc2c(c1)NC(=O)C1CCCN21 (stereo not shown) | 10.3 |
| O=C(O)c1ccc(OCCN2CCCC2=O)cc1 | 18.1 |
| O=C(NC1CCCC1)C(=O)c1c[nH]c2ccccc12 | 3.62 |
| CCOC(=O)Cn1c(=O)c2c(nc(Br)n2Cc2ccccc2Cl)n(C)c1=O | 2.47 |
| N#CCN1CCN(CC(=O)Nc2cccc3ccccc23)CC1 | 18.4 |
| CCc1nnc(NC(=O)CCn2cnc3ccccc3c2=O)s1 | 1.4 |
| O=C1C(=O)N(CCOCCO)C(c2ccccn2)/C1=C(\O)c1ccccc1 (stereo not shown) | 7.48 |
| O=C(NCC1COc2ccccc2O1)C1CCN(S(=O)(=O)c2ccc(Cl)cc2)CC1 (stereo not shown) | -41.1 |
| O=C(COC(=O)COc1ccc(Cl)cc1)NC1CC1 | 4.37 |
| O=C(CN(C1CCCCC1)S(=O)(=O)c1ccccc1)N1CCCC1 | -59.3 |

| SMILES | hERG current change (%, negative = inhibition) at 10uM [%] |
| --- | --- |
| O=C(COC(=O)/C=C/c1cccc(Cl)c1)NC1CC1 | 10.1 |
| CN(CC(=O)Nc1ccccc1)CC(=O)Nc1ccccc1Cl | -3.63 |
| C#CCOCCOCCOCCNc1nc(N2CCN(C(=O)CCCCCCCCCCNC(=O)[C@H](CO)n3cc(CCCSC)nn3)CC2)nc(N2CCN(C(=O)CCCCCCCCCCNC(=O)[C@H](CO)n3cc(CCCSC)nn3)CC2)n1 | 4.57 |
| CCN(CC)c1ccc(/C=N/Nc2nc(C)cc(=O)[nH]2)c(O)c1 | -1.18 |
| O=S(=O)(Cc1ccccc1)NCCc1ccc(F)cc1 | 8.08 |
| CNS(=O)(=O)c1ccc(NC(=O)c2ccccn2)cc1 | 19.1 |
| COC(=O)Cc1c(C)nc2nc[nH]n2c1=O | 14.4 |
| O=C(c1cc(-c2ccco2)nc2ccccc12)N(Cc1nnc(-c2ccc(Cl)cc2)o1)C1CC1 | -18.8 |
| CC1Cc2cc(/C(O)=C3/C(=O)C(=O)N(CC4CCCO4)C3c3ccco3)ccc2O1 (stereo not shown) | 14.1 |
| Cc1cc(C)n(CC(O)COc2ccccc2[N+](=O)[O-])n1 (stereo not shown) | 9.8 |
| COC(=O)c1cc(Oc2ccc(S(=O)(=O)N3CCOCC3)cc2[N+](=O)[O-])cc(C(=O)OC)c1 | -2.29 |
| CC1(C)CC(=O)C(Sc2ccc(Br)cc2)=C(O)C1 | 15.5 |
| Cc1c(Cl)cccc1NC(=S)NC1CCN(C(C)C)CC1 | 3.61 |
| Cc1ccc(C)c(N2CCN(CCCNC(=O)Cn3cccc3C(=O)c3ccccc3C)CC2)c1 | -74 |
| O=c1cc(-c2ccc(O)c(O)c2)oc2c(C3O[C@H](CO)[C@@H](O)[C@H](O)[C@H]3O)c(O)cc(O)c12 (stereo partly shown) | -2.58 |
| CCc1c(C)sc(NC(=O)Cc2ccccc2OC)c1C(=O)N1CCOCC1 | -16.4 |
| CCOC(=O)C1CCCN(C(=O)/C=C/c2ccccc2[N+](=O)[O-])C1 (stereo not shown) | -12.6 |
| Nc1c(C(=O)NCc2ccc3c(c2)OCO3)nnn1Cc1cccc(F)c1 | 9.79 |
| Cc1cc(C)cc(N2C(=O)CC(N3CCOCC3)C2=O)c1 (stereo not shown) | 14.9 |
| O=C(O)Cc1ccc(NC(=S)Nc2ccc(Br)cc2Cl)cc1 | 7.02 |
| Cc1onc(-c2ccccc2)c1C(=O)Oc1ccccc1 | -8.35 |
| CC(Sc1ccccc1)C(=O)Nc1ccc(S(=O)(=O)N2CCOCC2)cc1 (stereo not shown) | -13.6 |
